Out of some 310,000 compounds screened, about 14,000 (4.5%) showed an effect of 50% or more. The effect is printed as a negative number. This is one part of the list.
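Note: peak tail current of the secondary pulse compared with the same well before compound.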

human ether-à-go-go-related gene (hERG) potassium channel, sequence (Q12809 whole entry, looked up): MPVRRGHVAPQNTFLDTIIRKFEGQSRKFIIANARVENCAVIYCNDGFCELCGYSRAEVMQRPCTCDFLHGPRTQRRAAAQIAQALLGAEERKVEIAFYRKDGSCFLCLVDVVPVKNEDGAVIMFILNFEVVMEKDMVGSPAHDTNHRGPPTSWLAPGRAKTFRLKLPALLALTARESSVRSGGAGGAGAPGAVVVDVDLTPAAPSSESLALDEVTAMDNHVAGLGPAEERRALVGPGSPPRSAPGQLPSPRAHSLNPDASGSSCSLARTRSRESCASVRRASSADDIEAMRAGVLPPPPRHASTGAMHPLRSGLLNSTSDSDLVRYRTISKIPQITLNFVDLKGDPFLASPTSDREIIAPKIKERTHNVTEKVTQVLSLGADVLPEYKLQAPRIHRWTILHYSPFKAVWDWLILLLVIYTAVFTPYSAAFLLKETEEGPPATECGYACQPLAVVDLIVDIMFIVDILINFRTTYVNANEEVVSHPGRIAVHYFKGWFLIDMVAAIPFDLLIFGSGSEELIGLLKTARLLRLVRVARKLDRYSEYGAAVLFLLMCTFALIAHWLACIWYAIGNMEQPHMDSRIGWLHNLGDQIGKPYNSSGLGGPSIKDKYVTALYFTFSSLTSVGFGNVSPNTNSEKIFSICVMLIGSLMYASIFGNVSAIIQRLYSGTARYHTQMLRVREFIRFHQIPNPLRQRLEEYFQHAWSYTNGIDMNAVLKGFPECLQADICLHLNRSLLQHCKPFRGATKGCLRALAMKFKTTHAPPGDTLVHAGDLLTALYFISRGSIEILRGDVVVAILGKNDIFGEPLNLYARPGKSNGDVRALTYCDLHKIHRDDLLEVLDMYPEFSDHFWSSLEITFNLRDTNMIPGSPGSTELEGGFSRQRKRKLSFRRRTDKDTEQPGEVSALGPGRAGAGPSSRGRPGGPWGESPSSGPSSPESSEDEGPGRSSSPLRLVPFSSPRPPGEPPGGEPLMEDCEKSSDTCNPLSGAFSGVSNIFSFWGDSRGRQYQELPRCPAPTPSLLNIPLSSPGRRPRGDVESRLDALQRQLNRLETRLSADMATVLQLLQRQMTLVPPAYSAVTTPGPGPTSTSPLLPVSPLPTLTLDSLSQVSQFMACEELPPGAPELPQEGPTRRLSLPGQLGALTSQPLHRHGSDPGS

This assay has as its target human ether-à-go-go-related gene (hERG) potassium channel (human, UniProt Q12809). The experiment in a line: primary screen, population patch clamp on CHO cells stably expressing hERG.
With `CC(C)NC(=O)c1noc2cc([N+](=O)[O-])ccc12`, the “hERG current change (%, negative = inhibition) at 10uM” value is given as -4.48%.
The result for `O=C(CSc1nnc(-c2ccco2)n1Cc1ccco1)Nc1ccccc1` reads -70.7%.
Turning to `O=C(N/N=C/c1ccc([N+](=O)[O-])cc1)c1cccs1`, the “hERG current change (%, negative = inhibition) at 10uM” value is 10.2%.
For `CC(C)CC(=O)Nc1c2c(nn1-c1ccc([N+](=O)[O-])cc1)CS(=O)(=O)C2`, the “hERG current change (%, negative = inhibition) at 10uM” value is -32.5%.
The result for `O=C(COc1coc(CN2CCN(c3ccccc3F)CC2)cc1=O)NC1CCCCC1` reads -21.6%; that for `CCOc1ccc(/C=C(/NC(=O)c2ccccc2)C(=O)NCCC(=O)O)cc1`, 24%; that for `CC1CCCC2(C1)NC(=S)c1c(sc3c1CCCC3)N2` (stereo not shown), 18.8%.
With `COC(=O)c1c(C)[nH]c(O)c1C=Nc1ccc(C(C)C)cc1`, the “hERG current change (%, negative = inhibition) at 10uM” value is on record as -3.59%.
The result for `O=C(Cn1nc(Cc2cccnc2)c2ccccc2c1=O)N1CCN(C(=O)c2ccco2)CC1` reads -8.05%; that for `COC(C(=O)Nc1ccc(C(C)=O)cc1)c1ccccc1` (stereo not shown), 12.3%.
The result for `Cc1cccc(N2C(=O)CC(N3CCN(Cc4ccc(Cl)cc4)CC3)C2=O)c1` (stereo not shown) reads -32.3%; that for `Nc1nonc1C(=O)NCCNc1ncccc1[N+](=O)[O-]`, -4.45%; that for `O=C(Cc1cccs1)N/N=C/C=C/c1ccccc1`, 13.1%.
With `Cc1c(C)c2ccc(OCC(=O)Nc3cccnc3)cc2oc1=O` the figure was 5.04%; with `COC(=O)c1c(-c2ccc(C)cc2)csc1NC(=O)C1CC=CCC1C(=O)O` (stereo not shown), -0.165%.
In the case of `Cn1c(=O)n(Cc2ccccc2F)c(=O)c2c1nc1n2CCCN1CCc1ccccc1`, the “hERG current change (%, negative = inhibition) at 10uM” value is on record as 16.6%.
`COc1ccccc1C1CC(c2ccc(F)cc2)Nc2ncnn21` (stereo not shown): the “hERG current change (%, negative = inhibition) at 10uM” value is listed as -31.4%.
On to `Nc1nnc(SCC(=O)N2CCCCC2)s1`, for which the “hERG current change (%, negative = inhibition) at 10uM” value was determined as 8.09%.
With `Cc1ccc(NC(=O)C(Cc2ccccc2)N2C(=O)C3C4CCC(C4)C3C2=O)cc1Cl` (stereo not shown) the figure was 2.78%; with `COc1ccc(NC(=O)CC2C(=O)N(C)C(=S)N2CCc2ccc(F)cc2)cc1` (stereo not shown), -12.6%.
The result for `COc1cccc(C2CC(c3ccccc3C)n3nc(N)nc3N2)c1` (stereo not shown) reads 1.85%; that for `COc1cc(N=c2ssnc2Cl)cc(OC)c1`, -3.27%.
Regarding `O=C1CCCN1CCCNc1ncnc2c1cnn2-c1ccc(Cl)cc1`, the “hERG current change (%, negative = inhibition) at 10uM” value is listed as -36.2%.
With `CC(=O)c1sc(NC(=O)CS(=O)(=O)c2ccccc2)nc1C`, the “hERG current change (%, negative = inhibition) at 10uM” value was -25.3%.
The result for `O=C(O)c1cc(S(=O)(=O)N(Cc2ccccc2)c2ccccc2Cl)ccc1Cl` reads 18.2%; that for `Cc1cccc(-n2c(O)cnc2Nc2nc(C)cc(C)n2)c1`, 3.06%.
Turning to `O=C(CSc1nc2ccccc2[nH]1)Nc1ccc(F)c(F)c1`, the “hERG current change (%, negative = inhibition) at 10uM” value turned out to be 2.2%.
In the case of `CCOc1cc(C(=O)OCC(=O)c2cc(C)n(CC3CCCO3)c2C)ccc1OCC(=O)N1CCOCC1` (stereo not shown), the “hERG current change (%, negative = inhibition) at 10uM” value amounted to 31.5%.
As for `CC(Oc1ccc(S(=O)(=O)N2CCCC2)cc1[N+](=O)[O-])C(=O)NC1(C#N)CCCCC1` (stereo not shown), the “hERG current change (%, negative = inhibition) at 10uM” value is -18.1%.
The result for `CCc1nc2oc3ccccc3c(=O)c2c(=O)n1-c1ccc(C)cc1` reads -2.95%; that for `CC(C)NS(=O)(=O)c1ccc(NCCCn2ccnc2)c([N+](=O)[O-])c1`, -1.68%.
The result for `CC(C)(O)C#Cc1ccc(C(=O)NCc2cccs2)s1` reads -8.15%.
With `N#Cc1ccc(Oc2c(Cl)cncc2Cl)cc1` the figure was -39.9%.
With `CC(C)(c1ccccc1)c1ccc(OCCN)cc1.Cl`, the “hERG current change (%, negative = inhibition) at 10uM” value is recorded as -20.2%.
With `O=C(COC(=O)c1ccccc1Cc1ccccc1)NC1CCS(=O)(=O)C1` (stereo not shown) the figure was -3.16%; with `O=C(CN(c1ccc(Cl)cc1)S(=O)(=O)c1ccccc1)N/N=C/c1ccco1`, -21.2%.
The result for `CCCCCC1CC(=O)C=C(C)C1C(=O)OC` (stereo not shown) reads -3.74%; that for `CC(C)c1ccc(/C=N/NC(=O)CC(=O)NC2CCCCC2)cc1`, 10.2%; that for `O=C(OCC(=O)N1CCCc2ccccc21)c1cccc(S(=O)(=O)N2CCOCC2)c1`, 1.21%.
With `CO/N=C/CC(=O)Nc1ccc(F)cc1F` the figure was 13.3%.
For `C=CCc1cccc2cc(C(=O)Nc3ccc(S(=O)(=O)Nc4nnc(CC)s4)cc3)c(=O)oc12`, the “hERG current change (%, negative = inhibition) at 10uM” value is reported as -15.3%.
In the case of `O=Cc1c(Nc2cccc(C(F)(F)F)c2)nc2ccccn2c1=O`, the “hERG current change (%, negative = inhibition) at 10uM” value was -8.04%.
The result for `CC(O)CNc1ccc(-c2nn(C)c(=O)c3ccccc23)cc1[N+](=O)[O-]` (stereo not shown) reads -0.657%.

Source of the values: PMC4336329 (PLoS ONE, 2015).
